These results are taken from PubChem BioAssay AID1346428 (National Center for Advancing Translational Sciences (NCATS), 2018).

Structures are written as SMILES. “And” between values parts separate entries of the source, which are not always exact repeats. Equal entries are not always repeated. Hit rate of the full screen: of about 48,000 compounds, about 1,200 (2.5%) were called active. Roughly 2% stayed inconclusive and do not appear here.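 Rule for the calls: active = activation of at least 60% and not above a set upper limit (about 1 call in 100 departs from these limits); inconclusive = activation of 40% to 60%, or above that upper limit; inactive = activation under 40%.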 The list shows a part of the results.

Chain of UniProt O75388 (O75388 whole entry, looked up): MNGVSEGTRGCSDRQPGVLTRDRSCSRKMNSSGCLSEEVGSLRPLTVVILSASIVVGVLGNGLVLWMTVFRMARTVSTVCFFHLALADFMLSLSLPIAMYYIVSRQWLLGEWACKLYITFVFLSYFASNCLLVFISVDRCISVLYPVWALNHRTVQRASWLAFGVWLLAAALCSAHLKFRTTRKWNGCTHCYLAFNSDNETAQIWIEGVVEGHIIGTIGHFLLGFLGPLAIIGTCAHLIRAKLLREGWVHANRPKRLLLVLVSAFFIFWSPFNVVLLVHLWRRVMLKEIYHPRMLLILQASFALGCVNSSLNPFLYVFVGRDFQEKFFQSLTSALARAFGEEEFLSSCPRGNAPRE

This test addresses Probable G-protein coupled receptor 32 (Homo sapiens) (UniProt O75388). The test is described as follows: qHTS for Agonists of Human Resolvin D1 Receptor DRV1. Note: 0% is about no effect. Particulars: CHO-K1 GPR32 beta-arrestin PathHunter luminescence, 90 min; at 76.9 µM; hits give high values; zero percent set by DMSO-only wells. The procedure, abridged:
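Engineered CHO-K1 line co-expressing GPR32-ProLink and EA-beta-arrestin. Compound treatment lasted 90 min at 37 °C. Luminescence was recorded after 1 h with substrate at ambient temperature, relative to DMSO basal wells.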
As for `Cc1cc(NC(=O)C2CCN(S(=O)(=O)c3c(C)noc3C)CC2)ccc1Br`, the activation is inactive: 21.1%. The value for `Cc1cc(C)c2nc(N(Cc3cccnc3)C(=O)CCS(=O)(=O)c3ccccc3)sc2c1` was inactive: -21.3%; that for `CCOc1ccc(-c2cn3c(n2)sc2cc(C(=O)NCCCN4CCCCCC4)ccc23)cc1` was inactive: 4.03%; that for `CCc1ccc2oc(C(=O)NCC(c3ccc(OC)cc3)N3CCCCC3)c(C)c2c1` (stereo not given) was inactive: -5.53%. In the case of `COc1ccc(-c2nc3nc(C)cc(C)n3c2Nc2c(C)cccc2C)cc1`, the activation is inactive: -3.71%. The figure for `COc1ccccc1CNC(=O)C1(c2cccs2)CCOCC1` is inactive: 17%; for `N#Cc1c[nH]n2c(NC3CCCCC3)c(-c3ccc(F)cc3)nc12` it is inactive: -15.3%.

In the case of `CCc1ccc(OCC(=O)Nc2ccc3c(c2)c2ccccc2n3CC)cc1`, the activation was inactive: -25.4%. In the case of `Cc1cccc(-n2ccnc2SCC(=O)Nc2cccc3ccccc23)c1`, the activation is inactive: 9.24%.

Turning to `CCc1ccc2[nH]cc(S(=O)(=O)c3ccc(C(C)C)cc3)c(=O)c2c1`, the activation is active: 65.4%. As for `Cc1cc(C)cc(OCCSc2nc3ccc(NC(=O)c4ccc5c(c4)OCO5)cc3s2)c1`, the activation was inactive: -6.72%. The value for `O=C(COc1ccccc1Cl)Nc1ccc(OCc2cc(=O)n3ccsc3n2)cc1` was inactive: -5.42%; that for `Oc1ccccc1-c1nc(-c2cccs2)c(-c2cccs2)[nH]1` was inactive: -19.5%. With `COc1ccc(NC(=O)C2CCC(CNS(=O)(=O)c3cccc4nsnc34)CC2)cc1OC` (stereo not given), the activation is inactive: -4.32%. Regarding `CCCOC(=O)c1cccc(Nc2nc(CCC)cc(=O)[nH]2)c1`, the activation was active: 86.9%. The figure for `Cc1ccc(CN2C(=O)C(O)(c3c(C)[nH]c4ccccc34)c3ccccc32)cc1` (stereo not given) is active: 70%. For the compound `COC(=O)c1cc2oc(C)cc2n1Cc1ccccc1Cl`, the activation is inactive: -31.7%. On to `CCOC(=O)Cn1c(=N)n(Cc2ccc(C(C)(C)C)cc2)c2ccccc21`, for which the activation is inactive: 34%.

`COc1ccc(C(=O)n2nc(N)c3cc4ccc(C)cc4nc32)cc1OC`: the activation was inactive: 0.377%. Regarding `COCCNC(=O)CCCn1c(SCC(=O)Nc2ccc(F)cc2)nc2c(sc3ccccc32)c1=O`, the activation is inactive: -5.16%. In the case of `CC1CCN(C(=O)c2c(NC(=O)c3ccccc3Cl)sc3c2CCC(C(C)(C)C)C3)CC1` (stereo not given), the activation is inactive: -11%. The value for `COc1ccccc1C1NC(=O)c2n[nH]c(-c3cccs3)c21` (stereo not given) was active: 104%; that for `Cc1cc(C)cc(-n2ccnc2SCC(=O)Nc2cccc3ccccc23)c1` was inactive: -19.7%; that for `Cc1cc2nc(-c3ccc(OCc4ccccc4C)cc3)cc(C(F)(F)F)n2n1` was inactive: 2.12%. In the case of `Cc1ccccc1-c1nc(CN2CCCC(C(=O)NCc3ccc(Cl)cc3)C2)c(C)o1` (stereo not given), the activation is inactive: 23.3%.

Turning to `COc1ccc(N2C(=O)NC(NS(=O)(=O)c3ccc(Cl)cc3)(C(F)(F)F)C2=O)cc1` (stereo not given), the activation was inactive: -2.22%. With `CNC(=O)C1CCC(Cn2c(=O)c3sccc3n(Cc3cc(C)ccc3C)c2=O)CC1` (stereo not given), the activation was inactive: 0.452%. The figure for `COc1ccc([N+](=O)[O-])cc1NC(c1nnc(-c2ccccc2)o1)c1ccccc1F` (stereo not given) is inactive: -24.9%. The value for `CCc1ccc(S(=O)(=O)c2cn(CC(=O)Nc3ccc(F)c(Cl)c3)c3ccccc3c2=O)cc1` was inactive: 3.53%. The value for `CCN(C(=O)Cn1c(C(=O)OC)cc2sc(Cl)cc21)c1cccc(C)c1` was inactive: -10.5%; that for `COc1ccc(C2C(=O)N(C3CCCCC3)CC(=O)N2CCc2ccc(C)cc2)cc1OC` (stereo not given) was inactive: -11.6%. As for `CSc1nc(NCCOC(C)=O)c(C#N)c(-c2ccc(C(C)(C)C)cc2)n1`, the activation was inactive: -24.1%. The figure for `NC(CS)C(=O)O` (stereo not given) is inactive: -4.95%. On to `Cc1ccc2nc(CN3CCN(C(=O)Nc4ccc(F)cc4)CC3)oc2c1`, for which the activation was inactive: -2.74%. The figure for `CCc1ccccc1NC(=O)c1cn(C)c(=O)c2ccccc12` is inactive: -17.9%. Regarding `CCn1c(COc2ccc(Cl)cc2Cl)nc2ccccc21`, the activation is inactive: 46.5%.

On to `COc1c(Cl)cc(Cl)cc1C(=O)Nc1cccc(-c2nc3ccccc3o2)c1C`, for which the activation was inactive: 13.6%.

With `O=S(=O)(c1ccc(F)cc1)N1CCC(Oc2cccc(C(F)(F)F)c2)CC1`, the activation was inactive: -14.7%. The figure for `COc1cccc(CNC(=O)C(=O)NCC(c2cccs2)S(=O)(=O)c2ccccc2)c1` (stereo not given) is inactive: -6.93%; for `COc1ccc(CCNC(=O)CCCn2c(=O)c3ccccc3n(Cc3ccccc3)c2=O)cc1OC` it is inactive: -8.4%. `COc1ccc(S(=O)(=O)N2Cc3ccccc3CC2C(=O)Nc2ccc(C)cc2)cc1OC` (stereo not given): the activation is inactive: -19.9%.

Turning to `Cc1c2cnn(-c3ccccc3)c(=O)c2c(C)n1C(C)C(=O)Nc1ccccc1C(F)(F)F` (stereo not given), the activation was inactive: -20.9%. The figure for `Cc1cccc(N2CCN(C(=O)c3ccc4c(c3)N(Cc3ccccc3)C(=O)c3ccccc3S4(=O)=O)CC2C)c1` (stereo not given) is inactive: -63.8%; for `Cc1cccc(CCNC(=O)c2cc(S(=O)(=O)N3CCCCC3)c[nH]2)c1` it is inactive: -10.5%. In the case of `C/C=C/c1ccc(OC)cc1`, the activation was inactive: -4.35%. The figure for `COc1ccc(CCN2C(=O)N(c3cccc(C)c3)C(=O)C2CC(=O)Nc2ccccc2)cc1OC` (stereo not given) is inactive: -3.07%; for `Clc1ccc(CCNc2nc3cc(Cl)c(Cl)cc3n3cnnc23)cc1` it is inactive: 0.893%; for `CCOC(=O)CC(NC(=O)Cn1nnc(-c2ccccc2Cl)n1)c1ccc(OC)cc1` (stereo not given) it is inactive: -7.08%. The figure for `Cc1ccc(C)c(NC(c2ccccc2)c2nnc(-c3ccccc3F)o2)c1` (stereo not given) is inactive: -35.7%. With `COc1ccc(-c2nnc(C3CCN(S(=O)(=O)c4cccc(Cl)c4)CC3)o2)cc1`, the activation is inactive: -6.69%. `COc1cc(-c2nc(SCC(=O)Nc3ccc4c(c3)OCO4)c(-c3ccccc3)[nH]2)cc(OC)c1OC`: the activation is inactive: -22.7%. The value for `COc1ccccc1CNC(=O)CSc1ncc(S(=O)(=O)c2ccc(C)c(Cl)c2)c(=O)[nH]1` was inactive: -8.34%; that for `COc1ccc(OCCn2c(NC(=O)c3ccc(OC)cc3)nc3ccccc32)cc1` was active: 62.8%. The value for `N=C(N)c1ccc(N)cc1` was inactive: 0.216%; that for `COCCCNC(=O)C1CCN(Cc2cc3ccccc3n2Cc2cccc(C)c2)CC1` was inactive: 33.8%; that for `CCCN(CCC)CCc1cccc2c1CC(=O)N2` was inactive: -16% and inactive: -4.13%.

`CNC(=O)C1CCC(Cn2c(=O)c3sccc3n(CC(=O)N3CCCC(C)C3)c2=O)CC1` (stereo not given): the activation was inactive: -4.59%. Consider `CCCCN(C(=O)C1CCC(CNS(=O)(=O)c2cccc3nsnc23)CC1)c1ccccc1` (stereo not given), for which the activation was inactive: 15.3%.

In the case of `CCOC(=O)c1c(NC(=O)c2ccc(OCC)c(Br)c2)sc2c1CCCC2`, the activation was inactive: 13.4%.

Consider `CC(=O)Nc1cc(C(=O)NCc2ccc(F)cc2)ccc1Sc1ccc(F)cc1`, for which the activation is inactive: -20.9%. Take `Cc1cc2oc(=O)c(CC(=O)NCCc3ccccc3F)c(C)c2c2occ(C(C)(C)C)c12`: the activation was inactive: -27.1%. The value for `COc1ccc(CC(=O)NCC(c2cccs2)S(=O)(=O)c2ccc(F)c(C)c2)cc1` (stereo not given) was inactive: -7.18%.

Consider `Cc1ccc(C)c(S(=O)(=O)c2nnn3c2nc(N2CCN(C)CC2)c2sccc23)c1`, for which the activation was inactive: -25.9%. With `O=c1c2cc3c(cc2nc2sc(Nc4cccc([N+](=O)[O-])c4)nn12)OCO3`, the activation was inactive: 0.129%. On to `CC(=O)Nc1ccc(NC(=O)CN(C)S(=O)(=O)c2ccc3c(c2)CCCC(=O)N3)cc1`, for which the activation was inactive: 18.6%.

Take `CCc1ccc(CNC(=O)C2CCCN(c3nnc(C)c4c(C)n(-c5ccccc5)nc34)C2)cc1` (stereo not given): the activation was inactive: 1.79%. For `COc1ccccc1C(=O)N/C(=C\c1cn(S(=O)(=O)N(C)C)c2ccccc12)C(=O)NCCCn1ccnc1`, the activation was inactive: 10.7%. As for `Cc1ccccc1CSc1ncc(Cl)c(C(=O)Nc2nc3ccc(F)cc3s2)n1`, the activation is inactive: 10.7%. For `COc1ccccc1C(=O)Nc1nc2n(n1)C(c1ccc(F)cc1)C=C(c1ccc(Cl)cc1)N2` (stereo not given), the activation is inactive: 10.7%. The figure for `CCOC(=O)c1cc(S(=O)(=O)NCc2ccc(Cl)cc2)[nH]n1` is inactive: -9.7%. The value for `Cc1cccc(CN2CCC(CNC(=O)Cn3ncc4c([nH]c5ccc(C)cc54)c3=O)CC2)c1` was inactive: 4.2%; that for `COc1ccccc1NC(=O)C1=C(C)Nc2nc(SC)nn2C1c1ccccc1Cl` (stereo not given) was inactive: 34.5%. Regarding `COc1ccccc1C(=O)Nc1ccc2nc(SCC(=O)N3CCCc4ccccc43)sc2c1`, the activation is inactive: -18.1%. The value for `COc1ccc(OC)c(NC(=O)C2CCCN(S(=O)(=O)c3ccc4c(c3)CCCC(=O)N4)C2)c1` (stereo not given) was inactive: -4.17%.

Consider `Cc1cc2n(n1)CCC(=O)N2Cc1ccc(C(=O)Nc2cc(Cl)ccc2C)cc1`, for which the activation was inactive: 9.36%. The figure for `COc1ccc(NC(=O)c2ccco2)cc1NC(=O)c1cc(Cl)ccc1OC` is inactive: -25.9%.

`O=S1(=O)c2ccccc2N(Cc2cccc(F)c2)c2ccccc21`: the activation was inactive: 5.15%. The value for `CCCCN=C(N)N=C(N)N` was inactive: 17.6%; that for `COc1cccc(-c2cc(C(F)(F)F)nc(NCCc3ccc(OC)c(OC)c3)n2)c1` was inactive: -14.2%. The value for `CSc1ccc(-c2nnn(CC(=O)Nc3sc4c(c3C#N)CCC(C(C)(C)C)C4)n2)cc1` (stereo not given) was inactive: 39.9%; that for `CCCCOc1ccc(C(C)NC(=O)CN2C(=O)CSc3ccc(S(=O)(=O)N4CCOCC4)cc32)cc1` (stereo not given) was inactive: -37.2%; that for `CCCN(CCC)C(=O)Cn1c(=O)n(-c2cccc(C)c2)c(=O)c2c1c1cc(OC)ccc1n2C` was inactive: -25.1%.

As for `CC(C)CC(=O)NCC(c1ccc2c(c1)OCO2)N1CCN(c2ccccc2)CC1` (stereo not given), the activation is inactive: -12%. `O=C(CN1CCCN(Cc2cccc(Cl)c2)S1(=O)=O)Nc1ccc2c(c1)OCCO2`: the activation was inactive: 18.4%. The figure for `COc1ccc(-c2[nH]nc3nc(-c4cc(Br)ccc4OC)cc(C(=O)O)c23)cc1` is inactive: -23.4%.
